# The campaign covered roughly 360,000 compounds. About 2,600 (0.72%) were called active. Inconclusive means that the source gave no clear call. Such entries were picked first, then a sample of the others. Calls come from the whole dose curve; as a rule, active = well fitted inhibition curve with a large enough effect; inconclusive = small, poorly fitted or top-dose-only effect; inactive = no such curve, though single readings can be large or run the other way. Where the call is inconclusive, the potency comes from a doubtful curve fit.
# Experiment: Primary qHTS for Inhibitors of ATXN expression; note: nearly all actives have a fitted effect of over 55% in size
# Conditions: HEK-293 ATXN2-luciferase reporter, luminescence, 24 h; activity change, negative = inhibition: at 57 µM (top of the series)
# Outline: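 ATXN2-luciferase reporter cells (luciferase flanked by upstream and downstream ATXN2 gene portions) were treated 24 h at 37 °C with compounds at up to 57 uM. SteadyGlo luminescence gave expression; GF-AFC fluorescence gave viability.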
# % is set by controls: 0 for no effect and ±100 for the full control effect; potency is the fitted concentration of half-maximal effect; tags give direction and shape of the fitted curve.
SMILES,Potency,"activity change, negative = inhibition"
O=C1OC(c2ccccc2)=NC12CC2c1ccc(Cl)cc1 (stereo not drawn),"inconclusive: 12.6 µM [inhibitor, partial curve]",
COCCn1c(Cc2ccccc2)nnc1SCc1nc2ccccc2c(=O)[nH]1,"inconclusive: 17.8 µM [inhibitor, partial curve, poor fit]",
CC(C)Oc1cc(C(=O)NC2CCCCC2)c2ccccc2n1,,inactive: -13.8%
CCCCN(C=O)c1c(CC)nc2c(OCCOc3ccccc3)cccn12,"inconclusive: 31.6 µM [inhibitor, single point]",
O=C(CC1C(=O)NCCN1CC1CCCCC1)NCc1ccc(F)cc1F (stereo not drawn),,inactive: -16.4%
COc1ccc(C(=O)Nn2c(SCC(=O)NCC3CCCO3)nc3ccccc3c2=O)cc1 (stereo not drawn),"inconclusive: 10 µM [inhibitor, partial curve, poor fit]",
Cc1ccc2nc(-c3ccc(Cl)cc3)c(Cc3cccc(Cl)c3)n2c1,"inconclusive: 39.8 µM [inhibitor, partial curve, poor fit]",
COc1cc(NC(=O)Cn2nnc(-c3ccccc3N)n2)cc(OC)c1,,inactive: -12.6%
CC1CN(c2ccc([N+](=O)[O-])c(NCCOc3ccccc3)c2)CC(C)N1 (stereo not drawn),"inconclusive: 12.6 µM [inhibitor, partial curve, poor fit]",
Cc1oc(-c2ccc(Cl)cc2)nc1CSCC(=O)NC1CCN(Cc2ccccc2)CC1,"inconclusive: 12.6 µM [inhibitor, partial curve, poor fit]",
Cc1ccc(OCC(=O)N/N=C/c2cccc3cccnc23)cc1,"inconclusive: 17.8 µM [inhibitor, partial curve, poor fit]",
COc1ccc(C2=NS(=O)(=O)N(C)C(C(=O)Nc3ccc(C(C)=O)cc3)=C2)cc1OC,"inconclusive: 39.8 µM [inhibitor, partial curve, poor fit]",
CC(=O)c1ccccc1OCc1ccc(S(=O)(=O)Cc2ccccc2)cc1,,inactive: -30.7%
O=C(Nc1ccc2c(c1)CCCN2C(=O)c1cccs1)c1cccc(F)c1,"inconclusive: 39.8 µM [inhibitor, single point]",
CN(C)S(=O)(=O)c1ccc(Cl)c(NC(=O)CN2CCc3ccccc3C2)c1,"inconclusive: 17.8 µM [inhibitor, single point]",
O=C(NCc1ccccc1)c1ccc(C(=O)N(C2CCCCC2)C2CCCCC2)cc1,"inconclusive: 31.6 µM [inhibitor, partial curve, poor fit]",
CCOC(=O)c1c(C)oc2c1c(C(c1cccnc1)N1CCOCC1)c(O)c1ccccc12 (stereo not drawn),"inconclusive: 39.8 µM [inhibitor, single point]",
CC(C)(C)OC(=O)N1CCC[C@H]1C(=O)NCc1ccc(F)cc1F,,inactive: 0.607%
CNS(=O)(=O)c1ccc(NC(=O)C2c3ccccc3Oc3ccccc32)cc1,"inconclusive: 14.1 µM [inhibitor, partial curve]",
CCN(c1ccccc1)S(=O)(=O)c1cc(C(=O)OCC(=O)c2c(N)n(C)c(=O)n(C)c2=O)ccc1C,"inconclusive: 39.8 µM [inhibitor, single point]",
O=C(CCl)N1N=C(c2ccco2)CC1c1cccs1 (stereo not drawn),"inconclusive: 28.2 µM [inhibitor, partial curve, poor fit]",

SMILES,Potency,"activity change, negative = inhibition"
O=C(O)CCCNC(=O)CCCn1nnc2ccccc2c1=O,,inactive: 5.62%
Cc1ccc(-n2[nH]c(=O)c3cccnc32)cc1,,inactive: -0.442%
O=C(/C=C/c1ccc([N+](=O)[O-])cc1)c1ccccc(=O)c1O,"inconclusive: 11.9 µM [inhibitor, partial curve, poor fit]",
O=C(NC(c1ccc2c(c1)OCO2)c1ccccn1)C1CCN(CCOc2ccccc2)CC1 (stereo not drawn),,inactive: 9.22%
Cc1nn(-c2ccccc2)c2sc(C(=O)NNC(=O)COc3cccc4ccccc34)cc12,"inconclusive: 25.1 µM [inhibitor, single point]",
O=C(Nc1ccccn1)c1ccc2c(=O)n3c(nc2c1)CCCCC3,"inconclusive: 20 µM [inhibitor, partial curve, poor fit]",
Cc1noc(C)c1S(=O)(=O)N(C)C[C@H]1Oc2c(NC(=O)Nc3ccc(C(F)(F)F)cc3)cccc2C(=O)N([C@H](C)CO)C[C@@H]1C,"inconclusive: 39.8 µM [inhibitor, single point]",
CC(C)CCNC(=O)c1c(CSc2ccc(Cl)cc2)noc1C(=O)NCc1ccccc1,,inactive: -8.06%
COc1ccc(CCNC(=O)COC(=O)c2cc(OC)c(OC)cc2OC)cc1OC,,inactive: -19.4% [at 11.3 µM]
CC1(C(=O)Nc2cccc(C(F)(F)F)c2)Cc2c(-c3cccc(C(N)=O)c3)ccnc2O1 (stereo not drawn),"inconclusive: 39.8 µM [inhibitor, single point]",
COC(=O)c1ccc(NC(=O)c2c(NCc3cccc(F)c3)sc3c2CCCC3)cc1,"inconclusive: 39.8 µM [inhibitor, single point]",
O=C(CSCc1ccc(Cl)cc1)Nc1ccc(-c2nnc(-c3ccccc3)o2)cc1,"inconclusive: 7.94 µM [inhibitor, partial curve, poor fit]",
COc1ccc(C(=O)NCC(=O)N/N=C/c2ccc([N+](=O)[O-])s2)cc1OC,"inconclusive: 12.6 µM [inhibitor, partial curve, poor fit]",
COC(=O)C1=C(CS(=O)(=O)c2ccc(C)cc2C)NC(=O)NC1c1ccc(C)cc1 (stereo not drawn),"inconclusive: 28.2 µM [inhibitor, partial curve, poor fit]",
OC(CNCC1CCCO1)Cn1c2ccc(Br)cc2c2cc(Br)ccc21 (stereo not drawn),"inconclusive: 35.5 µM [inhibitor, single point]",
COc1ccc(C(=O)Nc2nnc(SCc3cc(=O)c4cc(C)ccc4[nH]3)s2)cc1OC,,inactive: 6.5%
N#C/C(=C/c1cc(Br)cs1)C(=O)NCC1CCCO1 (stereo not drawn),"inconclusive: 28.2 µM [inhibitor, partial curve, poor fit]",
CCn1cc([N+](=O)[O-])c(C(=O)N2N=C(c3ccc(Cl)c(Cl)c3)CC2c2ccccc2O)n1 (stereo not drawn),"inconclusive: 31.6 µM [inhibitor, single point]",
COc1ccccc1CC(=O)Nc1ccc(-c2noc(COc3ccc(Cl)c(C)c3)n2)cc1,"inconclusive: 15.8 µM [inhibitor, partial curve, poor fit]",
CC(C)C[C@H]1CN([C@@H](Cc2ccccc2)CN2CCC[C@H]2CN2C(=O)C(=O)NC[C@@H]2Cc2ccc(O)cc2)C(=O)C(=O)N1CC1CCCCCC1,"inconclusive: 39.8 µM [inhibitor, single point]",
CCn1c2ccccc2c2cc(CN3CCN(S(C)(=O)=O)CC3)ccc21,,inactive: -20.8%

SMILES,Potency,"activity change, negative = inhibition"
O=C(Nc1ccc(N2CCOCC2)cc1)c1ccc2nc(-c3ccco3)c(-c3ccco3)nc2c1,"inconclusive: 12.6 µM [inhibitor, partial curve, poor fit]",
CC/C(=N/Nc1cccc(C)c1)c1cnnc(SC)n1,"inconclusive: 15.8 µM [inhibitor, partial curve]",
Cc1nn(C)c(C)c1S(=O)(=O)N(CC(=O)N1CCc2ccccc2C1)c1ccc(C(C)C)cc1,"inconclusive: 28.2 µM [inhibitor, partial curve, poor fit]",
O=C(CNCc1cccs1)Nc1cc(S(=O)(=O)N2CCCC2)ccc1Cl,"inconclusive: 0.891 µM [inhibitor, full curve, poor fit]",
COc1ccc(NS(=O)(=O)c2ccc(Oc3c(C#N)cccc3C#N)cc2)cc1,"inconclusive: 11.2 µM [inhibitor, partial curve, poor fit]",
CC1(C)CC(N2CCCCC2)=CC(=[N+]2CCCCC2)C1,"inconclusive: 11.9 µM [inhibitor, partial curve]",
Cc1ccccc1Cn1nnc(-c2cccc(C(=O)O)c2)n1,"inconclusive: 17.8 µM [inhibitor, partial curve, poor fit]",
O=C(O)c1nn2cc(CCO)cnc2c1Cl,,inactive: 3.38%
COCCNc1nc(NCC2CCCCC2)c2sc(-c3ccccc3)cc2n1,active: 35.5 µM,
Cc1ccc(C(=O)c2c3ccccc3[n+]([O-])n2[C@@H](C)C(N)=O)cc1,,inactive: 23.5%
COc1ccc(CNC(=O)COC(=O)c2cnccn2)cc1,,inactive: 6.37%
C=C1C(=O)OC2C1CCC(C)=C1C(=O)C3OC3(C)C12 (stereo not drawn),active: 7.08 µM,
CC(=O)c1cccc(NC(=O)C2CCN(S(=O)(=O)c3ccc(C)cc3)CC2)c1,,inactive: -6.23%
O=C(COc1ccc(Cl)cc1)Nc1ccc(N2CCN(C(=O)c3ccco3)CC2)cc1,,inactive: -20.2%
Cc1c2cnn(CC(=O)NCCCN3CC(C)CC(C)C3)c(=O)c2c(C)n1Cc1ccc(Cl)cc1 (stereo not drawn),"inconclusive: 14.1 µM [inhibitor, partial curve, poor fit]",
CC(C)(C)OC(=O)CNC(=O)c1[nH]cnc1C(=O)NCCCCCNC(=O)OC(C)(C)C,"inconclusive: 35.5 µM [inhibitor, single point]",
Cc1cc(C(=O)COC(=O)c2ccc[nH]c2=O)c(C)n1-c1ccccc1,,inactive: -32.5%
O=C(C1CCC(Cn2c(=O)c3sccc3n(Cc3ccc(F)cc3)c2=O)CC1)N1CCOCC1 (stereo not drawn),,inactive: -9.22%
CCCCNc1c(-c2ccc(-c3ccc(C(C)=O)cc3)c(OC)c2)nc2cc(C)ccn12,"inconclusive: 28.2 µM [inhibitor, single point]",
CCOc1cc(/C=C2\CN(CC)C/C(=C\c3ccc(O)c(OCC)c3)C2=O)ccc1O,"inconclusive: 39.8 µM [inhibitor, single point]",
CCN1CCN(c2cc(SC(C)C)nc(-c3ccc(OC)cc3)n2)CC1,"inconclusive: 20 µM [inhibitor, single point]",

# Reference: PubChem BioAssay AID1745845 (National Center for Advancing Translational Sciences (NCATS), 2022)
